# From the supplement of paper PMC9446081
# About 220 (0.56%) of roughly 39,000 compounds showed activity. The list shows a part of the results.
# System: Escherichia coli K-12 BW25113
# Assay: relative growth (OD600 normalised to plate interquartile mean) (fraction); higher = less growth inhibition, active = 0.2 or less
# Conditions: 50 µM; LB; incubation time: overnight (16-24 h)
# 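Note: static incubation at 37 °C against the wild-type strain, values averaged over two biological replicates.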
row,SMILES,relative growth
1,C[C@@H]1CN([C@@H](C)CO)C(=O)c2cccc(NC(=O)Nc3ccccc3)c2O[C@H]1CN(C)Cc1ccc(C(F)(F)F)cc1,inactive: 0.822
2,CN1CCN(CC#N)C(=O)C12CCN(C(=O)c1cnccn1)CC2,inactive: 1.02
3,O=C(NCCCN1CCOCC1)[C@H]1[C@H](CO)[C@H]2Cn3c(cccc3=O)[C@@H]1N2C(=O)C1CCCCC1,inactive: 0.97
4,C[C@H](CO)N1C[C@H](C)[C@H](CN(C)Cc2ccc3c(c2)OCO3)Oc2c(NC(=O)C3CCOCC3)cccc2C1=O,inactive: 0.997
5,C[C@H](CO)N1C[C@H](C)[C@@H](CN(C)Cc2ccc(-c3ccccc3)cc2)Oc2ccc(NC(=O)Nc3ccc4c(c3)OCO4)cc2CC1=O,inactive: 0.999
6,C[C@H](CO)N1C[C@H](C)[C@H](CN(C)Cc2cncnc2)Oc2cc(-c3ccccc3F)ccc2S1(=O)=O,inactive: 0.975
7,CC(C)NC(=O)N(C)C[C@@H]1OCc2cn(nn2)CCCC(=O)N([C@H](C)CO)C[C@@H]1C,inactive: 1.01
8,CC(N)(Cc1ccc(O)c(O)c1)C(=O)O (stereo unspecified),inactive: 1.11
9,Cn1c(CC#N)n[nH]c1=S,inactive: 1.01
10,Cc1ccc(S(=O)(=O)N(C)C[C@H]2Oc3ccc(NS(=O)(=O)c4ccccc4)cc3C(=O)N([C@H](C)CO)C[C@H]2C)cc1,inactive: 1.01
11,C=CCOC(=O)[C@@H]1[C@H]2C(=O)O[C@H](c3ccccc3)[C@H](c3ccccc3)N2[C@H](c2ccc(OCCOC(=O)[C@H]3C[C@H]4C(=O)NCC(=O)N4[C@H]3c3ccc(O)cc3)cc2)[C@@]12C(=O)Nc1ccc(I)cc12,inactive: 1.08
12,CC(=O)NO,inactive: 1.09
13,C[C@H](CO)N1C[C@H](C)[C@@H](CN(C)S(=O)(=O)c2cn(C)cn2)Oc2c(NC(=O)CCCN(C)C)cccc2C1=O,inactive: 0.974
14,C[C@@H]1CN([C@@H](C)CO)C(=O)Cc2cc(NC(=O)C3CC3)ccc2O[C@@H]1CN(C)C(=O)Nc1ccc2c(c1)OCO2,inactive: 1
15,C[C@H](CO)N1C[C@H](C)[C@H](CN(C)C(=O)CN(C)C)Oc2cc(C#Cc3cccnc3)ccc2S1(=O)=O,inactive: 0.965
16,C[C@H]1CN([C@@H](C)CO)S(=O)(=O)c2ccc(C#CC(C)(C)O)cc2O[C@@H]1CN(C)Cc1ccc(F)cc1,inactive: 1.01
17,C[C@H]1CCCCO[C@@H](CN(C)C(=O)NC2CCCCC2)[C@@H](C)CN([C@@H](C)CO)C(=O)c2cc(NS(=O)(=O)c3ccccc3)ccc2O1,inactive: 1
18,COc1cc(O)c2c(=O)c(O)c(-c3ccc(O)c(O)c3)oc2c1,inactive: 0.96
19,C[C@H]1CN([C@@H](C)CO)C(=O)c2cc(NC(=O)Cn3cnnn3)ccc2O[C@@H]1CN(C)C(=O)NC1CCCCC1,inactive: 1
20,Cc1noc(C)c1NC(=O)N(C)C[C@H]1Oc2ccc(NC(=O)c3ccncc3)cc2CC(=O)N([C@H](C)CO)C[C@@H]1C,inactive: 1
21,C[C@@H]1CN([C@@H](C)CO)C(=O)c2cc(NC(=O)c3ccncc3)ccc2O[C@@H](C)CCCCO[C@H]1CN(C)S(C)(=O)=O,inactive: 0.987

row,SMILES,relative growth
1,C[C@H](CO)N1C[C@H](C)[C@H](CN(C)Cc2cccnc2)Oc2cc(C#CCN(C)C)ccc2S1(=O)=O,inactive: 1.01
2,O=C(O)/C=C/C1=C[C@@H]2[C@@H](O)[C@@H](O)[C@H]1[C@H](C(=O)O[C@@H](Cc1ccc(O)c(O)c1)C(=O)O)[C@@H]2c1ccc(O)c(O)c1,inactive: 0.989
3,C[C@@H]1CN([C@@H](C)CO)S(=O)(=O)c2ccc(Br)cc2O[C@@H]1CN(C)CC1CCOCC1,inactive: 0.998
4,C[C@H](CO)N1C[C@H](C)[C@@H](CN(C)C(=O)Nc2ccccc2F)Oc2cc(C#CCN(C)C)ccc2S1(=O)=O,inactive: 0.997
5,COc1ccc(-c2c(O)c3c(OC)c4c(cc3oc2=O)OC(C)(C)C=C4)cc1,inactive: 1.02
6,C[C@@H]1CCCCO[C@@H](CN(C)Cc2ccc3c(c2)OCO3)[C@@H](C)CN([C@H](C)CO)C(=O)c2cc(NS(=O)(=O)c3ccc(Cl)cc3)ccc2O1,inactive: 0.985
7,CN1CCN(C(=O)[C@H]2[C@H](CO)[C@H]3Cn4c(ccc(-c5cncnc5)c4=O)[C@H]3N2CC2CC2)CC1,inactive: 0.962
8,CC(=O)N(C)CCc1ccc(C)[n+]([O-])c1,inactive: 0.998
9,C[C@@H]1CN([C@H](C)CO)C(=O)c2cc(NC(=O)c3ccncc3)ccc2O[C@@H](C)CCCCO[C@@H]1CN(C)Cc1ccccc1,inactive: 1
10,CC(C)CC#Cc1cnc2c(c1)C(=O)N([C@@H](C)CO)C[C@H](C)[C@H](CN(C)C(=O)c1ccc3c(c1)OCO3)O2,inactive: 0.989
11,C[C@H]1CN([C@@H](C)CO)C(=O)c2cc(NC(=O)C3CC3)ccc2O[C@H]1CN(C)Cc1ccc(C(=O)O)cc1,inactive: 0.863
12,CCN(CC)CCOc1ccc(C(=C(Cl)c2ccccc2)c2ccccc2)cc1.O=C(O)CC(O)(CC(=O)O)C(=O)O,inactive: 0.86
13,N=C(N)SCCN,inactive: 0.965
14,CCCNC(=O)N1C[C@]2(CCN(CC2)S(=O)(=O)c2cccc(c2)OC)c2c(n(c3cc(ccc23)OC)C)[C@H]1CO,inactive: 1.01
15,COc1cccc(S(=O)(=O)Nc2ccc3c(c2)[C@H]2C[C@@H](CC(=O)NCCc4ccccc4)O[C@H](CO)[C@H]2O3)c1,inactive: 0.984
16,COc1ccc(NC(=O)Nc2ccc3c(c2)C(=O)N([C@H](C)CO)C[C@@H](C)[C@H](CN(C)Cc2ccc(C(F)(F)F)cc2)OCCCC[C@@H](C)O3)cc1,inactive: 1.03
17,CCN1C[C@]23CN(C(=O)c4ccn[nH]4)C[C@@H](C[C@H]2S1(=O)=O)O3,inactive: 1.02
18,COc1ccc(NC(=O)Nc2ccc3c(c2)CC(=O)N([C@@H](C)CO)C[C@@H](C)[C@H](CN(C)Cc2ccc(Cl)c(Cl)c2)O3)cc1,inactive: 0.978
19,C[C@@H]1CN([C@H](C)CO)C(=O)c2cc(NC(=O)Cc3ccccc3)ccc2O[C@@H](C)CCCCO[C@@H]1CN(C)S(=O)(=O)c1ccc(Cl)cc1,inactive: 1.06
20,C[C@H]1CN([C@@H](C)CO)C(=O)c2cccc(NS(=O)(=O)c3ccc(F)cc3)c2O[C@@H]1CN(C)C(=O)Nc1cccc2ccccc12,inactive: 0.995
21,Cc1ccc(S(=O)(=O)Nc2ccc3c(c2)CC(=O)N([C@@H](C)CO)C[C@H](C)[C@H](CN(C)S(=O)(=O)c2ccc(F)cc2)O3)cc1,inactive: 1.02

row,SMILES,relative growth
1,Cc1ccc(S(=O)(=O)N[C@H]2CC[C@H](CCNC(=O)CN3CCOCC3)O[C@@H]2CO)cc1,inactive: 1
2,Cc1ccc(S(=O)(=O)Nc2ccc3c(c2)C(=O)N([C@@H](C)CO)C[C@H](C)[C@@H](CN(C)Cc2ccc(C(F)(F)F)cc2)OCCCC[C@@H](C)O3)cc1,inactive: 1.02
3,COc1ccc2ccccc2c1-c1c(OC)ccc2ccccc12,inactive: 1.02
4,C[C@H](CO)N1C[C@H](C)[C@@H](CN(C)S(=O)(=O)c2cccs2)Oc2ccc(NS(=O)(=O)c3cn(C)cn3)cc2CC1=O,inactive: 0.975
5,C[C@@H]1CCCCO[C@H](CN(C)C(=O)Nc2cccc3ccccc23)[C@H](C)CN([C@@H](C)CO)C(=O)c2cc(NC(=O)CCC(F)(F)F)ccc2O1,inactive: 0.961
6,C[C@@H]1CN([C@H](C)CO)C(=O)c2cc(NS(=O)(=O)c3cccs3)ccc2O[C@@H](C)CCCCO[C@H]1CN(C)Cc1ccc(C(=O)O)cc1,inactive: 1
7,C[C@@H]1CN([C@H](C)CO)C(=O)c2cc(NC(=O)Nc3cccc4ccccc34)ccc2O[C@@H](C)CCCCO[C@@H]1CN(C)S(=O)(=O)c1cccs1,inactive: 0.986
8,C[C@@H]1CN([C@@H](C)CO)C(=O)c2cc(NC(=O)CCC(F)(F)F)ccc2O[C@@H](C)CCCCO[C@@H]1CN(C)S(=O)(=O)c1cccs1,inactive: 0.997
9,C[C@@H]1CCCCO[C@H](CN(C)C(=O)CCC(F)(F)F)[C@H](C)CN([C@H](C)CO)C(=O)c2cc(NS(=O)(=O)c3ccccc3)ccc2O1,inactive: 1
10,Cc1ccc(S(=O)(=O)N(C)C[C@@H]2OCCCC[C@H](C)Oc3ccc(NC(=O)Nc4ccccc4)cc3C(=O)N([C@H](C)CO)C[C@H]2C)cc1,inactive: 1.03
11,C[C@@H]1CCCCO[C@@H](CN(C)C(=O)NC2CCCCC2)[C@@H](C)CN([C@H](C)CO)C(=O)c2cc(NS(=O)(=O)c3ccc(Cl)cc3)ccc2O1,inactive: 1.02
12,COc1ccc(S(=O)(=O)Nc2cccc3c2O[C@H](CN(C)Cc2ccc(Oc4ccccc4)cc2)[C@H](C)CN([C@@H](C)CO)C3=O)cc1,inactive: 1.01
13,NC1CCN(Cc2nc3ccccc3[nH]2)CC1,inactive: 0.937
14,COc1ccccc1C#Cc1ccc2c(c1)O[C@H](CN(C)Cc1cncnc1)[C@H](C)CN([C@H](C)CO)S2(=O)=O,inactive: 0.922
15,C[C@H]1CN([C@@H](C)CO)C(=O)Cc2cc(NC(=O)c3ccncc3)ccc2O[C@H]1CN(C)Cc1ccc2c(c1)OCO2,inactive: 1.03
16,O=S(=O)(Cc1ccccc1)Nn1cnnc1,inactive: 1.02
17,Cc1noc(C)c1S(=O)(=O)Nc1ccc2c(c1)C(=O)N([C@H](C)CO)C[C@@H](C)[C@H](CN(C)Cc1ccccc1)OCCCC[C@H](C)O2,inactive: 1
18,C[C@@H]1CCCCO[C@H](CN(C)C(=O)CCC(F)(F)F)[C@@H](C)CN([C@H](C)CO)C(=O)c2cc(NS(=O)(=O)c3ccc(F)cc3)ccc2O1,inactive: 0.989
19,Cc1noc(C)c1S(=O)(=O)Nc1cccc2c1O[C@@H](CN(C)S(=O)(=O)c1cccs1)[C@@H](C)CN([C@@H](C)CO)C2=O,inactive: 1.01
